Among all 310,000 compounds or so, about 14,000 (4.5%) showed an effect of 50% or more. Effects have a minus sign here. The list shows a part of the results.
The compounds below were run against human ether-à-go-go-related gene (hERG) potassium channel (human, UniProt Q12809) (assay: primary screen, population patch clamp on CHO cells stably expressing hERG).
Protocol: Briefly, Chinese hamster ovary (CHO) cells stably expressing the hERG channel were dislodged from tissue culture flasks and dispensed into PPC plates. […] During the recording, background leak currents were estimated by a 100 ms step to -80 mV from an initial holding potential of -70 mV and subtracted from the subsequent current measurement. The campaign was conducted in two phases using slight differences in recording protocol. In the first phase, the initial voltage pulse used a 100 ms step to -30 mV from a holding potential of -70 mV, a 2 s conditioning step to +25 mV, and a 2 s test step to -30 mV. During the second phase of the screen, the potential during the conditioning step was raised to +45 mV. In both phases of the campaign, a secondary voltage pulse was applied using the same parameters as the second phase initial pulse. The initial and secondary pulses were applied in the absence of compound, and upon application of 1 μM and 10 μM test concentrations. […]
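Note: peak tail current of the secondary pulse compared with the same well before compound.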

Chain of human ether-à-go-go-related gene (hERG) potassium channel (Q12809 whole entry, looked up): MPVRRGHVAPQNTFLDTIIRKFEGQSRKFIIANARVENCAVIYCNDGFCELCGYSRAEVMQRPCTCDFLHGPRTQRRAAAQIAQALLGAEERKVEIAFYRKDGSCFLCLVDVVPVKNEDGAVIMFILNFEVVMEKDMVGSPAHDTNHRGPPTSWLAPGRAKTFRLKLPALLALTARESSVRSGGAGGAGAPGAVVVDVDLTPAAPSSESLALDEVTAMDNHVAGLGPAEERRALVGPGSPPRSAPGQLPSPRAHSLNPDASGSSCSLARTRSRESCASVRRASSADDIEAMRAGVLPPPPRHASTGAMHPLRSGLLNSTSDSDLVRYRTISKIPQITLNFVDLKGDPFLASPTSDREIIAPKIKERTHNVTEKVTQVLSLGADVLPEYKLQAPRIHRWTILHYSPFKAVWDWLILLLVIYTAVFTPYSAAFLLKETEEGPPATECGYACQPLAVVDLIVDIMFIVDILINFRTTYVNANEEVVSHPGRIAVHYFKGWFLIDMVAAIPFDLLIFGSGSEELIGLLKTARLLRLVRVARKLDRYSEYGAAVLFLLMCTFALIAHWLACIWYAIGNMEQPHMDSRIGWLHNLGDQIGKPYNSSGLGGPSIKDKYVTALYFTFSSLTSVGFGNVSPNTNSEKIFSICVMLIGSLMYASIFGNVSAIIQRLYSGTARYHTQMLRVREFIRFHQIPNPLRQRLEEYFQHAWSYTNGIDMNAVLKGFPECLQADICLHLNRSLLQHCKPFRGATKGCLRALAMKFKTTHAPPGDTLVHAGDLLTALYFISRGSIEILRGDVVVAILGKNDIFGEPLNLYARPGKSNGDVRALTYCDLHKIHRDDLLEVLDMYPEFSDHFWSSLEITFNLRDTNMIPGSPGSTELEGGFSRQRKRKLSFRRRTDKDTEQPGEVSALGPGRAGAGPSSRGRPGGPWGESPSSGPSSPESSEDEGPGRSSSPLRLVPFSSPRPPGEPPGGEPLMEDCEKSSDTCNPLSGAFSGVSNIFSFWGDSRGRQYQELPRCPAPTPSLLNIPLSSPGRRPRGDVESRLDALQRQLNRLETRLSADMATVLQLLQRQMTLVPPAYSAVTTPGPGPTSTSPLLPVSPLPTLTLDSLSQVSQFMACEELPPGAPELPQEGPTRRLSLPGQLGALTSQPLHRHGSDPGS

| Compound | hERG current change (%, negative = inhibition) at 10uM [%] |
| --- | --- |
| O=C(/C=C/c1cccs1)NCc1cccs1 | -12.9 |
| Cn1c(-c2ccccc2)c(C(=O)CC#N)c2ccccc21 | 3.59 |
| O=C(O)c1ccc(NCCc2ccc(Cl)cc2)c([N+](=O)[O-])c1 | -6.59 |
| COc1ccccc1CNC(=O)C1CCN(S(=O)(=O)c2cccc3nonc23)CC1 | 11.9 |
| O=C(N/N=C\c1cccc(Cl)c1)c1ccc(Cn2cccn2)o1 | -71.2 |
| O=C(NCC1CCCO1)c1ccc2c3n(nc2c1)-c1ccccc1CO3 (stereo not shown) | -7.22 |
| O=[N+]([O-])c1ccc(Sc2nccn2Cc2ccccc2)cc1 | -59.5 |
| CC(=O)N1CCc2cc(Br)cc(S(=O)(=O)N3CCc4ccccc43)c21 | -46.1 |
| CCN1CCN(C(=O)/C(=C/c2ccco2)NC(=O)c2ccccc2)CC1 | -70.4 |
| Cc1ccc(OCC(=O)N/N=C/C=C/c2ccco2)cc1C | -23.9 |
| CCCOc1ccc(C2C(C(=O)c3ccc(C)o3)=C(O)C(=O)N2Cc2ccco2)cc1 (stereo not shown) | 15.4 |
| O=C(NCCO[N+](=O)[O-])c1cccnc1 | 8.33 |
| COc1ccc(-c2noc(CCC(=O)NCc3cc(Br)ccc3OC)n2)cc1 | 12 |
| COc1ccc(N2C(=O)N(Cc3ccc(C)cc3)c3ccccc3S2(=O)=O)cc1 | 4.54 |
| O=C(COC(=O)CCc1c[nH]c2ccccc12)NCCc1ccccc1 | 12.7 |
| NC(=S)NC1CCS(=O)(=O)C1 (stereo not shown) | 16 |
| Cc1cccc(OCCCCCN2CCOCC2)c1 | -4.05 |
| O=C(O)C1CN(C(=O)c2ccccc2)c2cc(Cl)ccc2O1 (stereo not shown) | 15.5 |
| Cc1nn(-c2ccc(Cl)cc2)c(Cl)c1/C=C(\C#N)C(N)=O | 2.92 |
| Cc1nnc(N2CCC(C(=O)N3CCCCC3)CC2)c2nn(-c3ccc(Cl)cc3)c(C)c12 | -73.9 |
| CCn1cc(C2=NOC(C(=O)Nc3cccc(C(C)=O)c3)C2)c(C)n1 (stereo not shown) | -5.16 |
| CC(C)CCN(C)C1CCN(C(=O)Nc2c(F)cccc2F)CC1 | 3.86 |

| Compound | hERG current change (%, negative = inhibition) at 10uM [%] |
| --- | --- |
| Cc1ccccc1CS(=O)(=O)Cc1ccc(C(=O)NCCCN2CC(C)CC(C)C2)o1 (stereo not shown) | -36.1 |
| CCOC(=O)c1cnc2ccc(OCC)cc2c1NCCCN1CCOCC1.Cl | -75.6 |
| Cc1ccc(N2C(=O)CS/C2=C(\C(Cl)=C(Cl)Cl)[N+](=O)[O-])cc1 | 21.5 |
| COc1ccc(NC(=S)NC(=O)Cc2ccccc2)cc1 | 1.18 |
| COC(=O)[C@@]12CCCCN1[C@H](c1ccc(-c3ccc(C(C)=O)cc3)cc1)[C@@H]1C(=O)N(C)C(=O)[C@@H]12.O=C(O)C(F)(F)F | 6.73 |
| CC(C)(C)NCCCCOc1ccccc1F | -13.1 |
| CCOc1ccc(C(=O)N2CCCC(c3nc(-c4ccc(C)o4)no3)C2)cc1 (stereo not shown) | -60.2 |
| Cc1cc(C)cc(N(CC(=O)Nc2ccc(Br)cc2)S(=O)(=O)c2c(C)[nH]c(=O)[nH]c2=O)c1 | -76.4 |
| CN(C)S(=O)(=O)c1ccc(S(=O)(=O)N2CCCC(C(=O)NC3CCCC3)C2)cc1 (stereo not shown) | -2.25 |
| O=C(O)CCCN=C1CCCc2ccccc2N1 | 13 |
| Cc1cccc(C)c1NC(=O)C(NC(=O)c1ccccn1)c1ccc([N+](=O)[O-])cc1 (stereo not shown) | 7.6 |
| CCn1c(SCC(=O)NCc2ccccc2)nnc1-c1ccccc1O | -7.65 |
| C/C(=N\NC(=O)c1nnn(-c2nonc2N)c1CSc1ccc(Cl)cc1)c1ccco1 | -0.36 |
| O=C(Cn1cnc2c(nnn2Cc2ccccc2)c1=O)N1CCN(c2ccccc2)CC1 | -42.5 |
| O=S(=O)(c1cnc(Cl)c(Cl)c1)N1CCCc2ccccc21 | 6.26 |
| O=C(CSc1nnc(-c2ccccc2F)o1)NC1CCCCC1 | 0.937 |
| O=C(Cc1ccc(Cl)c(Cl)c1)Nc1ccc(SC(F)F)cc1 | 12.2 |
| Cc1ccc(-n2c(C)cc(/C=C3/SC(=O)N(CC(=O)N4CCOCC4)C3=O)c2C)nc1 | 19.8 |
| CC(C)Cn1c(N)c(C(=O)CCl)c(=O)n(C)c1=O | 3.4 |
| COc1ccccc1NC(=O)CN1C(=O)COc2ccc(S(=O)(=O)N3CCC(C)CC3)cc21 | 0.0721 |
| Cc1ccc(C(C(=O)NC2CCCCC2)N(C(=O)c2csnn2)C2CC2)o1 (stereo not shown) | -57.6 |
| O=C1N(Cc2ccc(F)cc2)CCN1c1ccc(F)cc1 | -49.9 |

| Compound | hERG current change (%, negative = inhibition) at 10uM [%] |
| --- | --- |
| Cc1cc(N2CCN(C(=O)Nc3ccccc3C#N)CC2)c2ccccc2n1 | -72.9 |
| O=c1cc[nH]c2ccc(Cl)cc12 | 14.2 |
| Cc1ccccc1C(=O)N1CCN(c2ccc(NC(=S)NC(=O)c3cccs3)cc2)CC1 | 0.736 |
| CC1(CCl)CN1S(=O)(=O)c1ccccc1 (stereo not shown) | 5.57 |
| CC(=O)c1cccc(S(=O)(=O)NC(C)C2CC3CCC2C3)c1 (stereo not shown) | -7.29 |
| Cc1cccc(-n2c(SCC(=O)O)nc3sc4c(c3c2=O)CCC4)c1 | 19.7 |
| NS(=O)(=O)c1ccc(CCNCC(=O)N2CCC(Cc3ccccc3)CC2)cc1.O=C(O)C(=O)O | -37.1 |
| O=C(COC(=O)/C=C/c1cccs1)Nc1nc(-c2ccccc2)cs1 | 12.1 |
| O=C(CN1CCS(=O)(=O)CC1)N/N=C/c1cccc(C(F)(F)F)c1 | 2.75 |
| CCCCNCCOCCOc1ccccc1-c1ccccc1.O=C(O)C(=O)O | -50.1 |
| CC(C)(CO)Cc1cc(C(C)(C)C)c(O)c(C(C)(C)C)c1 | -7.77 |
| CCOC(=O)N1CCN(CC(O)COC2CC(C)CCC2C(C)C)CC1.Cl (stereo not shown) | -33.1 |
| CCOC(=O)Cn1c(C)c(Br)c(=O)c2cccc(C)c21 | 2.49 |
| Cc1cc(-c2ccc(S(=O)(=O)N3CCc4ccccc4C3)s2)on1 | 15.1 |
| O=C(CSc1nnc(-c2ccc(C(F)(F)F)cn2)s1)c1ccccc1 | 13.4 |
| Cc1cc2[nH]c(=O)c(=O)[nH]c2cc1S(=O)(=O)N1CCN(c2cccc(Cl)c2)CC1 | 7.87 |
| CNS(=O)(=O)c1cn(CC(=O)N(C)Cc2ccccc2)cc1S(=O)(=O)NC | -11.3 |
| CCOc1ccccc1N(C(=O)Nc1cccc(Cl)c1)C1=NC(C)CS1 (stereo not shown) | 9.17 |
| Cc1ccccc1C=Nc1ccccc1C(N)=O | 1.68 |
| CCc1ccc(C2CC(c3ccccc3)Nc3nc(N)nn32)cc1 (stereo not shown) | 3.94 |
| Cc1ccccc1OCc1nnc(SCC(=O)Nc2ccc3nc(SCC(=O)NC(C)(C)C)sc3c2)n1C | 14.3 |
| CCCCc1cc(=O)oc2c3c(cc(OCC(=O)N4CCC[C@H]4C(=O)O)c12)OC(C)(C)CC3 | 13.3 |

| Compound | hERG current change (%, negative = inhibition) at 10uM [%] |
| --- | --- |
| CCOc1ccccc1C(=O)Nc1cccc(-c2ccc(N3CCOCC3)nn2)c1 | -30.1 |
| CCOC(=O)Cn1ncn(-c2ccc(OC(F)(F)F)cc2)c1=O | 24.1 |
| O=C(NCc1ccco1)C1CC(c2ccc(Cl)c(Cl)c2)=NO1 (stereo not shown) | 8.51 |
| Br.C(CCCN1CCCCC1)CCN1CCCCC1 | 8.23 |
| Cc1ccc(C2CC(c3cccs3)=NN2C(=O)CSc2nc(=O)n3cc(C)ccc3n2)cc1 (stereo not shown) | -66.6 |
| CCCc1cc(=O)n2c([nH]c3ccccc32)c1C#N | 8.13 |
| Cc1oc2nc(SCC(=O)NCCCO)nc(N)c2c1C | 2.63 |
| CS(=O)(=O)N(CCc1ccccc1)CC(=O)Nc1ccc(Br)cc1F | 13.5 |
| COc1cccc(CNC(C)(C)CO)c1OCc1ccc(Cl)cc1.Cl | -56.6 |
| N#Cc1cccc(NC(=O)CNc2cccc(S(=O)(=O)N3CCCC3)c2)c1 | -26 |
| O=C(COC(=O)CCC1CCCC1)Nc1cccc(S(=O)(=O)N2CCOCC2)c1 | -31.8 |
| CCOC(=O)NC1Cc2ccccc2C1Sc1ccccn1 (stereo not shown) | 7.65 |
| CCCCN(Cc1ccco1)C(=O)c1cc2c(=O)[nH]c3ccc(C)cc3c2s1 | 16.6 |
| CCOC(=O)C1CCN(S(=O)(=O)c2ccc3[nH]c(=O)c(=O)[nH]c3c2)CC1 | 26.6 |
| Cc1cccn2c(=O)c3c(nc12)N1CCC(Cc2ccccc2)CC1C1(C3)C(=O)N(C)C(=O)N(C)C1=O (stereo not shown) | -0.575 |
| Cc1ccc(S(=O)(=O)N2CCCCC2)cc1NC(=O)Cn1cnnn1 | 4.33 |
| CC(C)c1ccc(C(=O)NCCCN2CCOCC2)cc1 | -5.2 |
| CC(=O)NCCc1nc2ccccc2n1Cc1cc(C)ccc1C | -4.18 |
| CCOc1ccc(OCCC(=O)N2CCN(S(=O)(=O)c3cccc(F)c3)CC2)cc1 | -62.4 |
| COc1ccc(CNC(=O)c2cc3c(=O)n4ccccc4nc3n(CC3CCCO3)c2=N)cc1 (stereo not shown) | -72.5 |
| Nc1c(-c2ccc(Cl)cc2)nnn1-c1ccccc1 | -4.88 |
| O=C(NC1CCCCC1)c1ccc(CS(=O)(=O)c2ccc(Cl)cc2)o1 | -29.1 |

Reference: paper PMC4336329 (PLoS ONE, 2015)
